Laboratory results taken from patent US20100111959A1 (Janssen / Centocor, published 2010).

Molecular target: T1, human IL-13 receptor alpha 1 on THP-1 cells (human, UniProt P78552 22-427)
T1 sequence (looked up): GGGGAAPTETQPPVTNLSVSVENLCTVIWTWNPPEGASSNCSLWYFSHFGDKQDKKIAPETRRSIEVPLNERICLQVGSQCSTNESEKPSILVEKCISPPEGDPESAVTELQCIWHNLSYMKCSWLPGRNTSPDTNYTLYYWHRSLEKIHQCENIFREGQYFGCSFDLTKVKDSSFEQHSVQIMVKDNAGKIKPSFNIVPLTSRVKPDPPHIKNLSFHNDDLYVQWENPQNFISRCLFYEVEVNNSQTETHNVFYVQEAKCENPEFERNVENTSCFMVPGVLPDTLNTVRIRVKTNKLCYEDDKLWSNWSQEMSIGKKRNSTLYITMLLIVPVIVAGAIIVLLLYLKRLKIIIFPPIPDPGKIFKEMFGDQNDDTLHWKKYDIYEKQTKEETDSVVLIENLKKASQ
Test: cell-based or functional assay

- IL-13-induced Stat 6 phosphorylation in THP-1 cells (flow cytometry), EC50: 0.332 ng/mL
B1: human wild-type IL-13 (ligand)
chain: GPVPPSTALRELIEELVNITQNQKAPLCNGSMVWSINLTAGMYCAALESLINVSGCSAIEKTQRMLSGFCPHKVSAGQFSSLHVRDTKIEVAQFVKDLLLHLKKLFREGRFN
modifications: biotinylated in the Ra2 inhibition assays
